This sample is rich in variants without activity.
B1: TPR 5TU (parent)
chain: GGAUCUUCUCGAUCUAACAAAAAAGACAAAUCUGCCACAAAGCUUGAGAGCAUCUUCGGAUGCAGAGGCGGCAGCCUUCGGUGGCGCGAUAGCGCCAACGUUCUCAACUAUGACACGCAAAACGCGUGCUCCGUUGAAUGGAGUUUAUCAUG

Variants of: B1
Experiment: polymerase ribozyme fitness, log enrichment relative to wild type (log ratio); higher = more active; in vitro selection for triplet polymerase activity
Method in brief: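 PCR was used to build mutant libraries for each subunit of a heterodimeric triplet polymerase ribozyme, which were then transcribed. A single in vitro selection round, in triplicate, used a frozen incubation at −7 °C and recovered extended constructs by gel excision, streptavidin beads and RT-PCR. Fitness is the logarithm of genotype enrichment relative to wild-type enrichment, averaged over replicates with inverse-variance weights. The logarithm is base 2, and after Illumina sequencing only genotypes with ≥10 input reads and ≥1 read per output were kept.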

Row | Variant | polymerase ribozyme fitness (log ratio)
1 | U15G C38A G94U A107G A110U U111C | ≤ -4.2
2 | U15G C38G C87A U102C | ≤ -4.2
3 | U15G C38U C87U U104A | -1.04
4 | U15G C43U A66U C95U C99U C131A C132U G140U A142C | ≤ -4.2
5 | U15G C54A A66C G74A C96A | ≤ -4.2
6 | U15G C57G C93A C99G | -4.06
7 | U15G C85U G100C C116G G141C | ≤ -4.2
8 | U15G C95U U104G U144A | -0.599
9 | U15G G25C C51A C96G C149G | ≤ -4.2
10 | U15G G25U U44A U45G U77G C93G A107C | ≤ -4.2
11 | U15G G25U U61G C93G U135C | ≤ -4.2
12 | U15G G42A G46A G50A A89C | ≤ -4.2
13 | U15G G46C G59U C93U C103U C123U A150U | ≤ -4.2
14 | U15G G50A A73G U135C G140U | ≤ -4.2
15 | U15G G58A U61A G65C U77A G92C A110C | ≤ -4.2
16 | U15G G65C C79A C96A | ≤ -4.2
17 | U15G G70A C93A U111C | ≤ -4.2
18 | U15G G74C A91C U134A A137U U148G | ≤ -4.2
19 | U15G G152U | -2.98
20 | U15G U31A G86U G128A G133U G143C | ≤ -4.2
21 | U15G U31A U90C G94U G124A C125U | ≤ -4.2

Row | Variant | polymerase ribozyme fitness (log ratio)
22 | U15G U31G C75U A91C C132U U134C U151C | ≤ -4.2
23 | U15G U33A A49C G67C A113G G141U | ≤ -4.2
24 | U15G U44G G88U C93A C118G A121G | ≤ -4.2
25 | U15G U45C G71A G94U U134C A138U U145G | ≤ -4.2
26 | U15G U53A A91G | -2.83
27 | U15G U53A C93G | ≤ -4.2
28 | U15G U53C C72G C87G | ≤ -4.2
29 | U15G U55A U77C C93U C125G | ≤ -4.2
30 | U15G U77A C96A | ≤ -4.2
31 | U15G U82C C103G G117U G141U | ≤ -4.2
32 | A16C A17G C43G G84U U101A G133U | ≤ -4.2
33 | A16C A17U A22C G92A U148C | ≤ -4.2
34 | A16C A17U C18U G42C C57U G83A A137C | ≤ -4.2
35 | A16C A17U C35A C72U A73G | ≤ -4.2
36 | A16C A17U C51A G86U C95A G136U | ≤ -4.2
37 | A16C A19U C85U G117U A150U | 0.0374
38 | A16C A20C A29C U55A G83U | ≤ -4.2
39 | A16C A20U A28U C35A G50U G59C G84A C87G C96U C103A | ≤ -4.2
40 | A16C A21C A29U A37C G42A | ≤ -4.2
41 | A16C A21G C57U G92A C105U G126C U134G A147G | ≤ -4.2
42 | A16C A21U C69U G71A | -1.79

Row | Variant | polymerase ribozyme fitness (log ratio)
43 | A16C A22C C38A A40U C93G A119G | ≤ -4.2
44 | A16C A22G C32A A37G G50U G74U | ≤ -4.2
45 | A16C A22U U33C C38G G83A C95U U102G C108U | ≤ -4.2
46 | A16C A22U U33C C72G G83C | ≤ -4.2
47 | A16C A23C C35U A97G | ≤ -4.2
48 | A16C A23U U61G G88U C114A | ≤ -4.2
49 | A16C A24C A26G U56A A73U C87G U130G U148G | ≤ -4.2
50 | A16C A24C G50C C85U G143U | ≤ -4.2
51 | A16C A24G C103A U134G | ≤ -4.2
52 | A16C A26C U44G A60U G80U A91U G128A U145G | ≤ -4.2
53 | A16C A26U G46C C75U C95A C96G C116G | ≤ -4.2
54 | A16C A28C G50A C54U A73U C87G C96G C114U | ≤ -4.2
55 | A16C A28G C38U A47C U53G C79U C114G U135G G136U | ≤ -4.2
56 | A16C A29G G50A C54U C93A C108U C116A U130G C132G G141C | ≤ -4.2
57 | A16C A29U U44A A110G G136A | ≤ -4.2
58 | A16C A30C U45A A47G A106G | ≤ -4.2
59 | A16C A39G G74U C85U C114A A138C U139A G141A | ≤ -4.2
60 | A16C A40C A66C G70A G84U A89G U127G A150G | ≤ -4.2
61 | A16C A40G C85A U111A | ≤ -4.2
62 | A16C A41C C57G G59C U135A | -3.85
63 | A16C A41C G58A U61G A73C G94C A121G | ≤ -4.2

Row | Variant | polymerase ribozyme fitness (log ratio)
64 | A16C A41G C43U C103G U139A U148A U151G | ≤ -4.2
65 | A16C A47C U55A U56A G68U G92U C99A U134G A137C | ≤ -4.2
66 | A16C A49C C103G | ≤ -4.2
67 | A16C A52C U56A A89U G94A C105U | ≤ -4.2
68 | A16C A52G A137U | ≤ -4.2
69 | A16C A52G G83A C85U A119C U134G U135C U139A U146C | ≤ -4.2
70 | A16C A52G U55A G94U A107G | ≤ -4.2
71 | A16C A66U A122C U139A A142U | ≤ -4.2
72 | A16C A91C C103A | ≤ -4.2
73 | A16C A91U C131G | ≤ -4.2
74 | A16C C18A C36A C96A U101G A110C G117A | ≤ -4.2
75 | A16C C18G U45G U61G | ≤ -4.2
76 | A16C C18U A20G C35G G46A G94C C96G | ≤ -4.2
77 | A16C C18U A21U C27A G50U G86U | ≤ -4.2
78 | A16C C27A A30U C38G G48U G86U A110U C116G G141A | -4.02
79 | A16C C27A C87U | ≤ -4.2
80 | A16C C27A G50C A60G C96U U109G A115C A119C U139G G143C | ≤ -4.2
81 | A16C C27A U53A U82C C85U A110U C114A A122C | ≤ -4.2
82 | A16C C27U A40U U55G C85U A107U A115G | ≤ -4.2
83 | A16C C27U U45G G83A A106C G143A | ≤ -4.2

— the RNAGym collection of RNA variant scans (doi:10.1073/pnas.2313332121)
